# Measurements as given in paper PMC12040169 (PLOS Biology, 2025).
# Read-outs that look alike come from different tables or passages of the source. The list shows a part of the results.
# Test system: T1, C. trachomatis L2/434/Bu expressing GFP (CTL2-GFP)
# T1 construct: L2/434/Bu GFP intracellular growth in HeLa cells
# Design: species or system HeLa; C. trachomatis total inclusion area by high-content imaging, normalised to DMSO
# Summary of the method: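 Following bulk GFP and resorufin fluorescence reads, infected cells were fixed, Hoechst-stained and imaged on a high-content platform. Inclusion total area and number per well served as growth proxies; nuclei counts indicated host viability. MICs were derived as for the fluorescence assay.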
# [1] = total inclusion area; 28.5 h, 10 µM; inhibitor
SMILES,% of control remaining [1],"% of control remaining (total inclusion area, 28.5 h, 10 µM, inhibitor)"
CCOC(=O)c1cnn2c(N)c(C(N)=O)nnc12 [CBK023694],19.1373,
O=C(Nc1cccnc1)c1cnc2cc(C(F)(F)F)ccc2c1O [CBK107474],,106.278
CCS(=O)(=O)N1CCc2cc(-c3csc(-c4cnn(C)c4)n3)ccc21 [CBK305560],38.9437,
Cc1onc(-c2ccccc2)c1-c1n[nH]c(=S)o1 [CBK009044],63.1689,
O=[N+]([O-])c1ccc(OCCOc2nccnc2N2CCNCC2)c2ncccc12 [CBK000623C],138.235,
O=C(O)c1ccc(Br)c(S(=O)(=O)Nc2ccc(Cl)cc2)c1 [CBK263247],68.6183,
CC(NC(=O)c1ccccc1)c1nnc(SCC(=O)c2ccccc2)n1C (stereo not shown) [CBK269644],89.6968,
NS(=O)(=O)c1ccc(CCNC(=O)c2ccc(C#Cc3ccccc3)cc2)cc1 [CBK263089],110.816,
Cc1cc(COc2nccnc2OC2CCN(Cc3ccccc3F)CC2)no1 [CBK082948T],85.3961,
CCn1c2ccccc2n2c(SC(C)C(=O)O)nnc12 (stereo not shown) [CBK267079],89.2557,
Cc1ccccc1-c1nnc(SC(C)C)n1CCN(C)S(C)(=O)=O [CBK200088],100.415,
CCOc1ccc2c(c1)cc(C(=O)NCc1cc(CC)no1)n2C [CBK281553],71.561,
CCOC(=O)c1ccc(N2C(=O)CC(N3CCN(c4ncccn4)CC3)C2=O)cc1 (stereo not shown) [CBK263306],91.5518,
CCS(=O)(=O)c1ccc2oc([C@H]3CCN(S(=O)(=O)c4ccccc4)C3)nc2c1 [CBK289382],103.745,
COc1ccc(C(=O)NNC(=O)c2cccc(Cl)c2)cc1OC [CBK261704],78.4338,
CCOc1ccsc1C(=O)NC1Cc2ccccc2C1 [CBK200359],0,
Oc1ccc(-n2cc(-c3ccsc3)nn2)cc1 [CBK113093],0,
Cc1ccn(CC(=O)N2CC[C@H]3NC(=O)COc4ccccc4CCCC[C@@H]3C2)c(=O)c1 [CBK292045],115.152,
O=C(O)CCSc1nnc2[nH]c3ccccc3n12 [CBK265736],124.053,
COC(=O)CC1C(=O)NCCN1C(=O)COc1ccc(Cl)cc1 (stereo not shown) [CBK264938],110.472,
CCCN1CCN(CC(=O)NCc2ccco2)CC1 [CBK270300],88.8642,
CC(C)CC(NC(=O)N1CCOc2ccc(Cl)cc2C1)c1ncnn1C (stereo not shown) [CBK306544],63.3641,
N#Cc1ccncc1NCc1ccccc1CN1CCCC1CO (stereo not shown) [CBK304021],80.0074,
COc1cc(NC(=S)P(=O)(c2ccccc2)c2ccccc2)c(OC)cc1Cl [CBK021976],89.7531,
CC1=C[C@@H](CNC(=O)c2ccccn2)[C@H](C(C)C)C[C@H]1CC(=O)N1CCCC1 [CBK289207],89.4104,
CC(=O)Nc1ccc(S(=O)(=O)Oc2ccc(/C=C3\SC(=N)NC3=O)cc2Cl)cc1 [CBK265357],100.24,

SMILES,% of control remaining [1],"% of control remaining (total inclusion area, 28.5 h, 10 µM, inhibitor)"
Cc1nnc2nc(-c3cccc(Cl)c3Cl)[nH]n12 [CBK263845],120.044,
Nc1nc(=O)c2cnc3ccc(C(=O)O)cc3c2s1 [CBK291239],124.698,
COc1cc(C(=O)N2CCC(N(C)C)C2)ccc1Nc1cncc(-c2cc3ccccc3[nH]2)n1 (stereo not shown) [CBK161475],85.118,
Cc1nc(C)c(CC(=O)NC(c2ccncc2)c2cccs2)s1 (stereo not shown) [CBK281439],106.697,
Nc1ncc(-c2ccc(C(=O)N3CCOCC3)cc2)cc1C(=O)NCc1ccc(S(N)(=O)=O)cc1 [CBK158597],87.5423,
O=C(NCCC1=CCCCC1)Nc1ccc(SC(F)(F)F)cc1 [CBK043725],78.4873,
COc1ccccc1N1CCN(C(=O)CCC(=O)c2cccs2)CC1 [CBK091498],106.057,
Cc1c(C(=O)O)c(-c2ccc(Cl)cc2)cn1CCO [CBK286959],112.673,
O=C(NCCNc1cnccn1)c1cncc(Br)c1 [CBK304278],68.4387,
CC(C)NC(=O)C1CCCN(c2nc3ccccc3n2C)C1 (stereo not shown) [CBK282373],78.8507,
CC(=O)c1ccc(-c2nccnc2NCC2CC2)s1 [CBK037975],86.4946,
CCOC(=O)CNC(=O)c1cc2ccccc2c(=O)o1 [CBK058083],95.0248,
Cc1cc(C)nc(N/C(=N\C(=O)Nc2ccccc2)NCc2cccnc2)n1 [CBK132681],79.8084,
CN(Cc1ccccc1)C(C#N)c1c[nH]c2ccccc12 (stereo not shown) [CBK087062],102.165,
CC(C)N(C(=O)c1ccccc1-c1cnn2cccnc12)C(C)C [CBK307701],44.2742,
CS(=O)(=O)Nc1ccc(-c2ccccc2)c2ccccc12 [CBK083741],95.4289,
Cc1cc(S(=O)(=O)N2CCCCC2)ccc1OCC(=O)O [CBK269254],103.315,
COc1ccc(Nc2nc(-c3cc(C(C)C)ccc3OC)cn3ccnc23)cn1 [CBK066354],106.819,
COCc1ccc(C(=O)NCC2CCCOC2)o1 (stereo not shown) [CBK282188],98.6816,
Cn1c(=O)c2c(nc(CN3CCOCC3)n2CCN2CCOCC2)n(C)c1=O [CBK269560],98.2172,
c1ccc(-c2cc(-c3ccccc3)n3nc(Cc4nc5nc(-c6ccccc6)cc(-c6ccccc6)n5n4)nc3n2)cc1 [CBK261017],103.749,
COc1ccc(-c2c[nH]c3c(=S)[nH]cnc23)cc1 [CBK288462],50.7842,
COc1ccc(CC(=O)N2CCC(C3OCc4cc(-c5ccc(C(=O)N(C)C)cc5)ccc4O3)CC2)cc1 (stereo not shown) [CBK149759],93.7909,
Cc1cc(NC(=O)c2ccc3c(c2)OCO3)nc2c1c(=O)oc1ccccc12 [CBK291121],95.2614,
COCCNc1cc(-c2ccc(SC)cc2)ncn1 [CBK090795],90.3409,
Cc1cc(C)n(C2CCN(Cc3cnn(C4CCCCC4)c3)CC2)n1 [CBK281804],106.497,
